# Reference: the supplement of paper PMC8728848
# This is one part of the list.
# B1: AT5G01260(PC)(40) (Arabidopsis thaliana), Q9LFB0 (protein)
# chain: MIGIGRTLTSSSPSKIILEDLPPGIYRYGTEIFTSVPRKTFHHIKFLRLDSAQSSRILKPVPLRSSSIKDSQVNVEDEEIEASNKTVRVRFQLRKECVFGEHFFIVGDDPVFGGLWDPETALPLNWSDGNVWTVDLDLPVGRLVEFKLLLKAQTGEILWQPGPNRALETWETNKTIRICEDWDNADLQMMIEEDFVPYTNISSIGSEDEDEVLGSVQQNSSVVAVENAGYVSDESAQNSSFSIQSEKTMEPSNGALTAREVIKEAMFTEEESPVLVPGLIPLSDLDNEQVEVINEGKAETFPEVDKKQEPKAERNKKAKVKAISLFEKSEQEAVKSVEQRQYNAVEEEQQRLETEPLGTPDVLFENDIQWGRRTLYKLLSNFRLF
# How the values were obtained:
# Test in all cases: glycan array binding signal (z-score within array); higher = stronger binding
# Details in all cases: glycan notation: IUPAC condensed, linker removed
# [1] = target: Gal(b1-4)GlcNAc(b1-2)Man(a1-3)[Gal(b1-4)GlcNAc(b1-2)Man(a1-6)]Man(b1-4)GlcNAc(b1-4)GlcNAc
# Summary of the method: (§1)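 Negative Z-scores can be read as non-binding. The Z-score is calculated within each array and then averaged across arrays of one protein sequence at different concentrations or buffers and across linkers. Arrays, 3228 in all, were curated from the Consortium for Functional Glycomics database and kept only where the protein sequence was available.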
# [2] = target: Gal(b1-4)GlcNAc(b1-2)Man(a1-3)[Gal(b1-4)GlcNAc(b1-2)Man(a1-6)]Man(b1-4)GlcNAc(b1-4)[Fuc(a1-6)]GlcNAc
# Summary of the method: as §1
# [3] = target: Gal(b1-4)GlcNAc(b1-2)Man(a1-3)[Gal(b1-4)GlcNAc(b1-2)Man(a1-6)][Gal(b1-4)GlcNAc(b1-4)]Man(b1-4)GlcNAc(b1-4)[Fuc(a1-6)]GlcNAc
# Summary of the method: as §1
# [4] = target: Gal(b1-4)GlcNAc(b1-2)Man(a1-3)[Gal(b1-4)GlcNAc(b1-2)Man(a1-6)][GlcNAc(b1-4)]Man(b1-4)GlcNAc(b1-4)[Fuc(a1-6)]GlcNAc
# Summary of the method: as §1
# [5] = target: Gal(b1-4)GlcNAc(b1-2)Man(a1-3)[GlcNAc(b1-2)Man(a1-6)]Man(b1-4)GlcNAc(b1-4)GlcNAc
# Summary of the method: as §1
# [6] = target: Gal(b1-4)GlcNAc(b1-2)Man(a1-3)[GlcNAc(b1-4)][Gal(b1-4)GlcNAc(b1-2)Man(a1-6)]Man(b1-4)GlcNAc(b1-4)GlcNAc
# Summary of the method: as §1
# [7] = target: Gal(b1-4)GlcNAc(b1-2)Man(a1-3)[Man(a1-6)]Man(b1-4)GlcNAc(b1-4)GlcNAc
# Summary of the method: as §1
# [8] = target: Gal(b1-4)GlcNAc(b1-2)Man(a1-6)Man(b1-4)GlcNAc(b1-4)GlcNAc
# Summary of the method: as §1
# [9] = target: Gal(b1-4)GlcNAc(b1-2)Man(a1-6)[GlcNAc(b1-2)Man(a1-3)]Man(b1-4)GlcNAc(b1-4)GlcNAc
# Summary of the method: as §1
# [10] = target: Gal(b1-4)GlcNAc(b1-2)Man(a1-6)[Man(a1-3)]Man(b1-4)GlcNAc(b1-4)GlcNAc
# Summary of the method: as §1
# [11] = target: Gal(b1-4)GlcNAc(b1-2)[Gal(b1-4)GlcNAc(b1-4)]Man(a1-3)[Gal(b1-4)GlcNAc(b1-2)Man(a1-6)]Man(b1-4)GlcNAc(b1-4)GlcNAc
# Summary of the method: as §1
# [12] = target: Gal(b1-4)GlcNAc(b1-2)[Gal(b1-4)GlcNAc(b1-4)]Man(a1-3)[Gal(b1-4)GlcNAc(b1-2)[Gal(b1-4)GlcNAc(b1-6)]Man(a1-6)]Man(b1-4)GlcNAc(b1-4)GlcNAc
# Summary of the method: as §1
# [13] = target: Gal(b1-4)GlcNAc(b1-2)[Gal(b1-4)GlcNAc(b1-4)]Man(a1-3)[GlcNAc(b1-4)][Gal(b1-4)GlcNAc(b1-2)Man(a1-6)]Man(b1-4)GlcNAc(b1-4)GlcNAc
# Summary of the method: as §1
# [14] = target: Gal(b1-4)GlcNAc(b1-2)[Gal(b1-4)GlcNAc(b1-4)]Man(a1-3)[GlcNAc(b1-4)][Gal(b1-4)GlcNAc(b1-2)[Gal(b1-4)GlcNAc(b1-6)]Man(a1-6)]Man(b1-4)GlcNAc(b1-4)GlcNAc
# Summary of the method: as §1
# [15] = target: Gal(b1-4)GlcNAc(b1-2)[Gal(b1-4)GlcNAc(b1-6)]Man(a1-6)[Gal(b1-4)GlcNAc(b1-2)Man(a1-3)]Man(b1-4)GlcNAc(b1-4)GlcNAc
# Summary of the method: as §1
# [16] = target: Gal(b1-4)GlcNAc(b1-2)[Gal(b1-4)GlcNAc(b1-6)]Man(a1-6)[Gal(b1-4)GlcNAc(b1-2)Man(a1-3)]Man(b1-4)GlcNAc(b1-4)[Fuc(a1-6)]GlcNAc
# Summary of the method: as §1
# [17] = target: Gal(b1-4)GlcNAc(b1-2)[Gal(b1-4)GlcNAc(b1-6)]Man(a1-6)[GlcNAc(b1-4)][Gal(b1-4)GlcNAc(b1-2)Man(a1-3)]Man(b1-4)GlcNAc(b1-4)GlcNAc
# Summary of the method: as §1
# [18] = target: Gal(b1-4)GlcNAc(b1-2)[Gal(b1-4)GlcNAc(b1-6)]Man(a1-6)[GlcNAc(b1-4)][Gal(b1-4)GlcNAc(b1-2)[Gal(b1-4)GlcNAc(b1-4)]Man(a1-3)]Man(b1-4)GlcNAc(b1-4)[Fuc(a1-6)]GlcNAc
# Summary of the method: as §1
# [19] = target: Gal(b1-4)GlcNAc(b1-3)Gal(b1-3)GalNAc
# Summary of the method: as §1
binder,measurement,setting,value
B1,glycan array binding signal (z-score),[1],-0.173
same,glycan array binding signal (z-score),[2],-0.516
same,glycan array binding signal (z-score),[3],-0.062
same,glycan array binding signal (z-score),[4],-0.686
same,glycan array binding signal (z-score),[5],-0.702
same,glycan array binding signal (z-score),[6],-0.511
same,glycan array binding signal (z-score),[7],-0.269
same,glycan array binding signal (z-score),[8],-0.602
same,glycan array binding signal (z-score),[9],-0.342
same,glycan array binding signal (z-score),[10],-0.694
same,glycan array binding signal (z-score),[11],-0.542
same,glycan array binding signal (z-score),[12],-0.091
same,glycan array binding signal (z-score),[13],-0.626
same,glycan array binding signal (z-score),[14],-0.552
same,glycan array binding signal (z-score),[15],0.037
same,glycan array binding signal (z-score),[16],0.414
same,glycan array binding signal (z-score),[17],-0.385
same,glycan array binding signal (z-score),[18],-0.294
same,glycan array binding signal (z-score),[19],-0.391
